About 1,700 (3.3%) of roughly 52,000 compounds were called active. No stated cut-off is given here; in the data, active means survival mostly below about 52% (no sharp cut-off); inactive means mostly above about 56%. This is one part of the list.
These molecules were tested on Wild type (assay: growth inhibition of S. aureus wild type versus tarO mutant, primary screen, teichoic acid synthesis inhibitors, RN4220, OD600 (AID 463173)). Settings: S. aureus RN4220 wild type/DeltatarO growth, OD600, 18 h, active compounds read low, screened at 18.75 µg/mL (by protocol).
For COc1ccc(CN(Cc2ccccc2)Cc2nnnn2C(C)(C)C)cc1, the survival was inactive: 128%.
COc1ccc(CC(=O)NCCc2sc3nc(-c4ccc(OC)cc4)nn3c2C)cc1 was tested, and the survival was inactive: 89%.
For CCCN(CCC)CCCNC(=O)c1cn(CC)c2ccc(S(=O)(=O)N(C)C3CCCCC3)cc2c1=O, the survival was inactive: 93%.
In the case of CCc1ccc(OCc2cc(=O)n3c4c(sc3n2)CCCC4)cc1, the survival is reported as inactive: 65%.
In the case of O=C(C1CCC1)N1CCCc2cc(S(=O)(=O)N3CCN(c4ccccc4)CC3)ccc21, the survival is reported as inactive: 71%.
With COc1cccc(N2CCN(C(=O)C3Cc4ccccc4N3C(C)=O)CC2)c1 (stereo not drawn) the survival was inactive: 81%.
CCC(=O)Nc1ccccc1-c1nc2ccccc2n(CC(=O)c2ccc(Cl)cc2)c1=O was tested, and the survival was inactive: 64%.
In the case of CCOC(=O)N1CCc2c(sc(NCc3cccc(F)c3)c2C(=O)Nc2ccc(OC)cc2OC)C1, the survival is reported as inactive: 68%.
In the case of CCNc1ncnc2c1nnn2C, the survival is reported as inactive: 65%.
CCOC(=O)c1c(C)[nH]c(CCC(=O)Nc2c(C)cccc2CC)c1C was tested, and the survival was inactive: 73%.
With Cc1cccc(-c2nc3ccccc3n2Cc2ccccc2)c1 the survival was active: 1%.
In the case of CC(C)OC(=O)C(C(=O)C(F)(F)F)c1cc(NS(=O)(=O)c2ccc3c4c(cccc24)C(=O)N3)ccc1O (stereo not drawn), the survival is reported as inactive: 67%.
In the case of O=C(/C=C/c1ccco1)Nc1cc(C(=O)O)cc(C(=O)O)c1, the survival is reported as inactive: 115%.
For Cc1ccc(S(=O)(=O)c2nnn3c2nc(NC(C)C)c2sccc23)cc1, the survival was inactive: 95%.
For COc1ccc2c(Sc3ccc(C)cc3)c(C(=O)NCc3ccc(F)cc3)[nH]c2c1, the survival was inactive: 91%.
In the case of O=C(Cn1cnc2ccccc2c1=O)N1CCCCCC1, the survival is reported as inactive: 104%.
In the case of O=C(CSc1nnc(-c2ccncc2)n1Cc1ccco1)N(c1ccccc1)c1ccccc1, the survival is reported as inactive: 112%.
For C=CCCC1(C)NNc2nc(=O)c(C)nn21 (stereo not drawn), the survival was inactive: 111%.
COc1ccccc1NC(=O)C1=C(C)Nc2nc(CCCO)nn2C1c1cccc(O)c1 (stereo not drawn) was tested, and the survival was inactive: 150%.
In the case of O=C(CCCn1c(=O)c2ccccc2n(Cc2cccc(Cl)c2)c1=O)NCCc1ccc(Cl)cc1, the survival is reported as inactive: 92%.
For CCN(CC)c1ccc2ccc(=O)oc2c1, the survival was inactive: 112%.
In the case of Cc1ccc(S(=O)(=O)N2CCCc3cc(NS(=O)(=O)c4cc(F)ccc4F)ccc32)cc1, the survival is reported as inactive: 128%.
In the case of CCOC(=O)c1ccc(N2C(=O)c3n[nH]c(-c4ccco4)c3C2c2ccc(OCC)cc2)cc1 (stereo not drawn), the survival is reported as inactive: 64%.
In the case of CCCC(=O)Nc1cc(C(=O)NCc2ccccc2)ccc1S(=O)(=O)c1ccc(Cl)cc1, the survival is reported as inactive: 78%.
In the case of O=C(CSc1nc2c(oc3ccccc32)c(=O)n1-c1ccccc1)Nc1ccccc1F, the survival is reported as inactive: 88%.
In the case of CC(C)c1ccc(NC(=O)CC2NCCNC2=O)cc1 (stereo not drawn), the survival is reported as inactive: 71%.
O=C(Cn1cc(S(=O)(=O)N2CCCC2)c(S(=O)(=O)N2CCCC2)c1)Nc1ccccc1 was tested, and the survival was inactive: 68%.
In the case of O=C(Nc1cccc(NC(=O)c2ccccc2F)c1)c1ccccc1, the survival is reported as inactive: 92%.
Cn1c(=O)c(=O)n(C)c2cc(S(=O)(=O)N3CCN(c4ccc(F)cc4)CC3)ccc21 was tested, and the survival was inactive: 132%.
In the case of COc1cc(C2CC(=O)c3cnc(N4CCN(CCO)CC4)nc3C2)cc(OC)c1OC (stereo not drawn), the survival is reported as inactive: 74%.
Cc1ccc(CN2CCCN(CC(=O)Nc3ccc(C)cc3C)S2(=O)=O)cc1 was tested, and the survival was inactive: 85%.
CSc1ccc(CCNC(=O)Cn2ccc3cc(S(=O)(=O)N4CCCCCC4)ccc32)cc1 was tested, and the survival was inactive: 136%.
For O=C(Nc1nc2n(n1)C(c1ccc(F)cc1)C=C(c1ccccc1)N2)c1ccco1 (stereo not drawn), the survival was inactive: 31%.
O=c1c(-c2cc(-c3ccccc3)nc3c2COc2ccc(Cl)cc2-3)coc2ccc(F)cc12 was tested, and the survival was inactive: 65%.
For Cc1c(Cl)cccc1NC(=O)c1ccc2c(c1)CCN2S(=O)(=O)c1ccccc1, the survival was inactive: 81%.
CCCCSc1nnc2c(n1)OC(c1ccc(Br)s1)N(C(C)=O)c1ccccc1-2 (stereo not drawn) was tested, and the survival was inactive: 61%.
In the case of CN(C)c1ccc(C(CNC(=O)c2ccccc2C(F)(F)F)N2CCOCC2)cc1 (stereo not drawn), the survival is reported as inactive: 79%.
With Cc1ccc(-c2noc(C3CCCN(S(=O)(=O)c4ccc5c(c4)OCCO5)C3)n2)cc1 (stereo not drawn) the survival was inactive: 113%.
CN(C)CCNc1ncnc2c1cnn2-c1cccc(Cl)c1 was tested, and the survival was inactive: 80%.
In the case of COc1ccc(CNC(=O)C2CCCN(S(=O)(=O)c3cccc4nsnc34)C2)cc1 (stereo not drawn), the survival is reported as inactive: 86%.
In the case of Nc1c(C(=O)Nc2ccc(OC(F)(F)F)cc2)sc2nc(-c3ccncc3)ccc12, the survival is reported as inactive: 93%.
For Cc1nn2c(=O)cc(COC(=O)Cc3ccccc3)nc2s1, the survival was inactive: 80%.
For CCOc1ccccc1-c1noc(CSc2nnc(-c3ccccc3)n2-c2ccc(F)cc2)n1, the survival was inactive: 117%.
In the case of Cn1nnnc1SCCCNCc1cc(Cl)ccc1OCc1ccc(F)cc1, the survival is reported as inactive: 80%.
COC(=O)c1c(NC(=O)c2nc(SCc3ccc(F)cc3)ncc2Cl)sc2c1CCCC2 was tested, and the survival was inactive: 81%.
CC(=O)Nc1ccc(NC(=O)c2cccc(C)c2)cc1 was tested, and the survival was inactive: 107%.
With CCC1CN(C(=O)N2CCC(C(=O)Nc3ccccc3F)CC2)c2ccccc2O1 (stereo not drawn) the survival was inactive: 84%.
Cc1ccc(C)c(N2CCN(c3c(CN4CCCC4)c(=O)oc4ccccc34)CC2)c1 was tested, and the survival was inactive: 80%.
For COc1ccccc1CNC(=O)c1ccc2nc(N3CCCCC3)sc2c1, the survival was inactive: 122%.
For CCCC(=O)Nc1ccccc1OCc1cc(=O)n2cc(C)ccc2n1, the survival was inactive: 53%.
Cc1ccc(CCNC(=O)c2ccc3c(Cl)c4c(nc3c2)CCCC4)cc1 was tested, and the survival was inactive: 71%.
O=C(C1CC(c2ccc(Cl)cc2)=NO1)N1CCCC1 (stereo not drawn) was tested, and the survival was inactive: 112%.
Cc1ccc(-n2c(=O)cc(N3CCN(c4ccccc4Cl)CC3)[nH]c2=O)cc1 was tested, and the survival was inactive: 19%.
In the case of O=C(Nc1cccc(Cl)c1Cl)c1cc(S(=O)(=O)NCc2ccc3c(c2)OCO3)ccc1F, the survival is reported as inactive: 72%.
For CC(C)NC(=O)CN1CCN(c2ccc(F)cc2)CC1, the survival was inactive: 108%.
For CCc1ccc(S(=O)(=O)N(C(=O)c2ccncc2)c2ccc3oc(C)c(C(=O)OC)c3c2)cc1, the survival was inactive: 74%.
In the case of Cc1cc(C)c(/C=N/NC(N)=O)c(C)c1/C=N/NC(N)=O, the survival is reported as inactive: 108%.
For COc1cccc(Cn2c(Oc3cc(C)cc(C)c3)nc3c2c(=O)n(C)c(=O)n3C)c1, the survival was inactive: 60%.

Source: PubChem BioAssay AID463173 (ICCB-Longwood Screening Facility, Harvard Medical School, 2010)
